The results in this text go back to the RNAGym collection of RNA variant scans (doi:10.7554/elife.90254).

Read counts are not given, so values of variants with three or more changes are uncertain.

B1: LINE1-full (parent)
chain: UACGUAGGUGGUUUUCCCCUGAUAGUGCUAAGGGGGCCUGGAAGUUUGGACUGGGCAGAGCUCAACACAGCGUGGCAAAGUGGCUGUGGCUAGACUGCCUCUCUGGAUUCCUCGUCACUCAGCAGGGCAUCUCUGAGAGAAAUGCC

This data set covers variants of B1. Put plainly: self-cleavage, relative activity (ratio to wild type); higher = more cleavage; in vitro, sequencing; the parent is a self-cleaving ribozyme.
Regarding UACGUAGGUGGUUUUCCCCUGAUAGUGCUAAGGGGGCCUGGAAAUUUGGACUGGGCAGAGCUCAACACAGCGCGGCAAAGUGGCUGUGGCUAGACUGCCCCUCUGGAUUCCUCGUCACUCAGCAGGGCAUCUCUGAGAGAAAUGCC [G44A U73C U100C], the self-cleavage stood at 1.84. As for UACGUAGGUGGUUUUCCCCUGAUAGUGCUAAGGGGGCCUGGAUGCUUGGACUGGGCAGGGCUCAACACAGCGUGGCAAAGUGGCUGUGGCUAGACUGCCUCUCUGGAUCCCUCGUCACUCAGCAGGGCAUCUCUGAGAGAAAUGCC [A43U U45C A59G U109C], the self-cleavage was 0.

In the case of UACGUAGGUGGUUUUCCCCUGAUAGUGCUAAGGGGGCCUGGAAACUUGGACUGGGCAGAGCUCAACACAGCGUGGCAAAGUGGCUGUGGCUAGACUGCCUCUCUGGAUUCCUCGUCACUCAGCAGGGCAUCUCUGGGAGAAAUGCC [G44A U45C A136G], the self-cleavage came to 0.88.

In the case of UACGUAGGUGGUUUUCCCCUGAUAGUGCUAAGGGGGCCUGGAUGUUUGGACUGGGCAGAGCUCAACACAGCGUGGCAAAGUGGCUGUGGCUAGACUGCCUCUCUGGACUCCUCGUCACUCAGCAGGGCAUCUCUGAGAGUAAUGCC [A43U U108C A140U], the self-cleavage was determined as 1.03. In the case of UACGUAGGUGGUUUUCCCCUGAUAGUGCUAAGGGGGCCUGGAUGUUUGGACUGGGCAGAGCUCUACACGGCGUGGCAAAGUGGCUGUGGCUAGACUGCCUCUCUGGAUUCCUCGUCACUCAGCAGGGCAUCUCUGAGAGAAAUGCC [A43U A64U A69G], the self-cleavage is 0.28. The figure for UACGUAGGUGGUUUUCCCCUGAUAGUGCUAAGGGGGCCUGGAUGUUUGGACUGGGCAGAGCUCAACACGGCGUGGCAAAGUGGCUGUGGCUAGACUGCCUCCCUGGAUUCCUCGUCACUCAGCAGGGCAUCUCUGAGAGAAAUGCC [A43U A69G U102C] is 0.96; for UACGUAGGUGGUUUUCCCCUGAUAGUGCUAAGGGGGCCUGGAUGUUUGGACUGGGCAGAGCUCAACACAGCGUGGCAAAGUGGCAGUGGCUAGACUGCCUCUCUGGAUUCCUCGUCACCCAGCAGGGCAUCUCUGAGAGAAAUGCC [A43U U85A U119C] it is 0.14.

As to UACGUAGGUGGUUUUCCCCUGAUAGUGCUAAGGGGGCCUGGAUGUUUGGACUGGGCAGAGCUCAACACAGCGUGGCAAAGUGGCUGUGGCUAGGCUGCCUCUCUGGAUUCCUCGUCACUCAGCAGGGCGUCUCUGAGAGAAAUGCC [A43U A94G A129G], the self-cleavage is 0.66. The figure for UACGUAGGUGGUUUUCCCCUGAUAGUGCUAAGGGGGCCUGGAUGUUUGGACUGGGCAGAGCUCAACACAGCGUGGCAAAGUGGCCGUGGCUAGACUGCCUCUCUGGAUUCCUCGUCACUCAGCAGGGCGUCUCUGAGAGAAAUGCC [A43U U85C A129G] is 0.19; for UACGUAGGUGGUUUUCCCCUGAUAGUGCUAAGGGGGCCUGGAGGUUUGGACUGGGCAGAGCUCAACACAGCGUGGCAAAGUGGCUGUGGCUAGACUGCCUCUCUGGAUUCCUCGUCACUCAGCAGGGCACCUCAGAGAGAAAUGCC [A43G U130C U134A] it is 0.93; for UACGUAGGUGGUUUUCCCCUGAUAGUGCUAAGGGGGCCUGGAUGUUUGGACUGGGCAGAGCUCAACACAGCGUAGCAAAGUGGCUGUGGCUAGACUGCCUCUCUGGAUUCCUCGUCACUCAGCAGGGCAUCUCUGAGAGAAAAGCC [A43U G74A U143A] it is 0.75. The figure for UACGUAGGUGGUUUUCCCCUGAUAGUGCUAAGGGGGCCUGGAUGUUUGGACUGGGCAGAGCUCAACACAGCGUGGCAAAGUGGCUGUGGCUAGACUGCCUCACAGGAUUCCUCGUCACUCAGCAGGGCGUCUCUGAGAGAAAUGCC [A43U U102A U104A A129G] is 2.1; for UACGUAGGUGGUUUUCCCCUGAUAGUGCUAAGGGGGCCUGGAUGUUUGGACUGGGCAGGGCUCAACACAGCGUGGCAAAGUGGCUGUGGCUAGACUGCCUCCCUGGAUUCCUCGUCACUCAGCGGGGCAUCUCUGAGAGAAAUGCC [A43U A59G U102C A124G] it is 0; for UACGUAGGUGGUUUUCCCCUGAUAGUGCUAAGGGGGCCUGGAUGUUUGGACUGGGCAGAGCUCGACACAGCGUGGCAGAGUGGCUGUGGCUAGACUGCCUCACUGGAUUCCUCGUCACUCAGCAGGGCAUCUCUGAGAGAAAUGCC [A43U A64G A78G U102A] it is 0.25. On to UACGUAGGUGGUUUUCCCCUGAUAGUGCUAAGGGGGCCUGGAUGUUUGGACUGGGCAGAGCUCAACACAGCGUGGCAAAGUGGCUGUGGCUAGACUGCCUCUCUGGAUUCCUCGUCACUCAGCAGGGCAUCUCCGAGAGUAAUGCC [A43U U134C A140U], for which the self-cleavage was 1.15. The figure for UACGUAGGUGGUUUUCCCCUGAUAGUGCUAAGGGGGCCUGGAUGAUUGGACUGGGCAGAGCUCAACACAGCGUGGCGAAGUGGCUGUGGCUAGACUGCCUCUCUGGAUUCCUCGUCACUCAGCAGGGCGUCUCUGAGAGAAAUGCC [A43U U45A A77G A129G] is 2.38; for UACGUAGGUGGUUUUCCCCUGAUAGUGCUAAGGGGGCCUGGAAAUUUGGACUGGGCAGAGCUCAACAUAGCGUGGCAAAGUGGCUGUGGCUAGACUGCCUCUCUGGAUUCCUCGUCACUCAGCAGGGCAUCUCUGAAAGAAUUGCC [G44A C68U G137A A142U] it is 0.35. The figure for UACGUAGGUGGUUUUCCCCUGAUAGUGCUAAGGGGGCCUGGAUGUUUGGACAGGGCAGAGCUCAACACAGCGUGGCAAAGUGGCUGUGGCUAGACUGCCUCUCUGGAUUCCCCGUCACUCAGCAGGGCAUCUCUGAGAGAAAUGCC [A43U U52A U112C] is 2.65; for UACGUAGGUGGUUUUCCCCUGAUAGUGCUAAGGGGGCCUGGAUGUUUGGACUGGGCAGAGCUCAACACAGCGUGGCAAAGUGGCUGUGGCUAGACUGCCCCUCUGGAUUCCUCGUCACUCAGCAGGGCACCUCUGAGAGAAAUGCC [A43U U100C U130C] it is 1.19.
